Test results published in PubChem BioAssay AID686970 (National Center for Advancing Translational Sciences (NCATS), 2013).
Screen size: about 360,000 compounds; about 6,000 (1.7%) were called active. The shares of active, inactive and inconclusive entries below differ from those in the screen. Calls follow the shape of the dose curve; as a rule, active = well fitted cell-killing curve with a large enough effect; inconclusive = small, poorly fitted or top-dose-only effect, or effect the other way; inactive = flat fitted curve, though single readings scatter. No potency is given beside an inconclusive call; the fits are too rough.

assay: qHTS for induction of synthetic lethality in tumor cells producing 2HG: qHTS for the HT-1080-NT fibrosarcoma cell line; details: HT-1080-NT fibrosarcoma viability, CellTiter-Glo ATP luminescence, 48 h; activity, negative = less viability: at 46.1 µM (top of the series) unless noted;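 also: NT is the 2HG producing partner of a matched IDH1 knockdown line; nearly all actives have a fitted effect of over 55% in size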;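 as to activity, negative = less viability: 0% = DMSO-treated cells and -100% = media-only wells without cells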
Summary of the method: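 HT-1080-NT fibrosarcoma cells (2HG-overproducing), 750 cells/well in RPMI with 5% FBS, dosed after 2 h and incubated 48 h at 37C. CellTiter-Glo luminescence normalized to DMSO and no-cell wells; concentration-response curves fitted and classed.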
Potency is read from the fitted curve at half-maximal effect; tags tell the direction and shape of the fitted curve.

Row | SMILES | Potency | activity, negative = less viability
1 | O=C(c1ccncc1)N1N=C(c2ccc(Br)cc2)CC1c1ccccc1O (configuration not stated) | inconclusive [cytotoxic, single point] | 
2 | COC(=O)c1cccc(NS(=O)(=O)c2ccc(OC)cc2)c1C | active: 11.6 µM | 
3 | Cc1cc(C)n(CC(=O)N/N=C/c2cc([N+](=O)[O-])ccc2O)n1 | inconclusive [cytotoxic, single point] | 
4 | COc1ccc2c(-c3ccccc3)cc(SCC(N)=O)nc2c1 | inconclusive [cytotoxic, single point] | 
5 | Cc1cc(Br)ccc1NC(=O)CNC(=O)Cn1ncc(Cl)c(Cl)c1=O | active: 3.66 µM | 
6 | CCCC(=O)n1nc(-c2ccc(C)cc2)nc1NCc1ccco1 | inconclusive [rising, partial curve] | 
7 | COc1cc(-c2c(C#N)c(N)nc3c2c(C)nn3-c2ccc(C)c(C)c2)cc(OC)c1OC | inconclusive [cytotoxic, single point] | 
8 | CCN(CC)c1ccc(/C=N/OCC(=O)N2CCCc3ccccc32)cc1 | inconclusive [cytotoxic, single point] | 
9 | Cc1cccc(-n2c(SCC(N)=O)nc3c(c2=O)C2(CCCC2)Cc2ccccc2-3)c1 | inconclusive [cytotoxic, single point] | 
10 | CCc1ccc(Nc2n[n+](-c3ccccc3)c(-c3c(Cl)cccc3Cl)s2)cc1 | active: 20.6 µM | 
11 | COc1ccccc1Cc1c(-c2ccc(OC)c(OC)c2)nc2ccc(Cl)cn12 | inconclusive [cytotoxic, single point] | 
12 | CCOC(=O)C1CCCN(CCC(=O)Nc2ccccc2C)C1 (configuration not stated) | inactive | 
13 | CCS(=O)(=O)N1Cc2cc(C(=O)NCC3CC3)nc(-c3cccc(-c4cccnc4)c3)c2[C@@H]1CCO | inconclusive [cytotoxic, single point] | 
14 | CC(=O)NC(c1ccccc1)c1cc([N+](=O)[O-])c2cccnc2c1O (configuration not stated) | inconclusive [cytotoxic, single point] | 
15 | Cc1ccc(C)c(NC(=S)Nc2cccc3cnccc23)c1 | inconclusive [cytotoxic, partial curve, poor fit] | 
16 | CCOC(=O)c1sc(SC)nc1N |  | inconclusive: 31.5%
17 | O=C(Cc1ccccc1)N1CCC(c2nc(-c3ccc(F)cc3)no2)CC1 | inactive | 
18 | COc1ccc(S(=O)(=O)N(C)c2nc3ccccc3n3c(CC(C)C)nnc23)cc1 | inactive | 
19 | Nc1ncc(-c2ccc(-c3ccccc3)cc2F)cc1-c1ccccc1F | inconclusive [cytotoxic, single point] | 
20 | COc1cccc(N2CCN(C(=O)CC(C)(C)CC3=NS(=O)(=O)c4ccccc4N3)CC2)c1 | inactive | 
21 | Nc1ncnc2c(C3OC(CO)C(O)C3O)scc12 (configuration not stated) | active: 0.259 µM | 
22 | C=CCn1c(SCc2c(C)noc2C)nc2sc3c(c2c1=O)CCC(C)C3 (configuration not stated) |  | inconclusive: -5.79% [cytotoxic]
23 | Cc1nc(N/N=C/c2ccc(O)cc2)c2cnn(-c3ccccc3)c2n1 | inconclusive [cytotoxic, single point] | 
24 | Cc1ccc(C(=O)C(C(=O)/C=C/c2ccccc2)=C2SCCCS2)cc1 | active: 11.6 µM | 

Row | SMILES | Potency | activity, negative = less viability
25 | CN1CCCN(C(c2ccccc2)c2ccc(Cl)cc2)CC1 (configuration not stated) | active: 18.4 µM | 
26 | CCN1CCN(c2ncc3c(n2)CC(c2cc(OC)c(OC)c(OC)c2)CC3=O)CC1 (configuration not stated) | inconclusive [cytotoxic, full curve] | 
27 | O=C(CSc1nnc(NC(=O)c2c(F)cccc2F)s1)NCc1ccc(F)cc1 | inactive | 
28 | C[C@@H]1C[C@H]2[C@@H]3CCC4=CC(=O)C=C[C@]4(C)[C@@]3(Cl)[C@@H](O)C[C@]2(C)[C@@]1(OC(=O)c1ccco1)C(=O)CCl | active: 16.4 µM | 
29 | CCCCCn1c(NC(=O)c2ccco2)c(S(=O)(=O)c2ccc(C)cc2)c2nc3ccccc3nc21 | inconclusive [cytotoxic, single point] | 
30 | Clc1ccc(OCCOCCOc2cccc3cccnc23)c(Br)c1 | inconclusive [cytotoxic, single point] | 
31 | O=C(CN1C(=O)c2ccccc2C1=O)Nc1cccc2cccnc12 | inactive | 
32 | COc1ccc(-c2ccc(N3C(c4cc(OC)cc(OC)c4)=Cc4ccc(OC)cc4C3CC(C)=O)cc2)cc1 (configuration not stated) | inconclusive [cytotoxic, partial curve] | 
33 | Cc1ccc(-n2ncc(Br)c(Br)c2=O)cc1 | active: 4.61 µM | 
34 | c1nc(SSc2ncnc3nc[nH]c23)c2[nH]cnc2n1 | active: 2.31 µM | 
35 | Cc1ccc(NC(=O)c2ccc(S(=O)(=O)N3CC(C)CC(C)C3)cc2)cc1S(=O)(=O)N1CCOCC1 (configuration not stated) | inactive | 
36 | CC(=O)c1cccc(NC(=O)Nc2nc(C)cc(C)n2)c1 | inactive | 
37 | COc1ccc(C(=O)/C(C#N)=N/Nc2ccc([N+](=O)[O-])cc2)cc1 | inconclusive [cytotoxic, full curve] | 
38 | Cc1ccc(Cl)cc1-c1cc(C(=O)NCc2cc(C(F)(F)F)cc(C(F)(F)F)c2)[nH]n1 | inconclusive [cytotoxic, single point] | 
39 | O=C(NCc1ccccc1)C1CCCN(c2cnccn2)C1 (configuration not stated) | inactive | 
40 | CNc1cncc(-c2ccc(NS(C)(=O)=O)cc2)n1 | inconclusive [cytotoxic, partial curve] | 
41 | CCCCCC(=O)Nc1nc(C)c(-c2csc(Nc3cc(OC)ccc3OC)n2)s1 | inconclusive [cytotoxic, partial curve] | 
42 | CCc1nc2c(OCc3cc(Cl)cc(Cl)c3)cccn2c1N(C=O)Cc1ccc(OC)cc1 | inconclusive [cytotoxic, single point] | 
43 | Cc1ccc(C)c(N2CCN(C(=O)c3ccc(N4CCOCC4)c([N+](=O)[O-])c3)CC2)c1 | inconclusive [cytotoxic, single point] | 
44 | COC(=O)/C=C\C(C#N)(C#N)N=Cc1ccc(OC)cc1 | inconclusive [cytotoxic, single point] | 
45 | Cc1ccc(C(=O)c2cc([N+](=O)[O-])ccc2N2CCCCC2)cc1C | active: 1.64 µM | 
46 | Cc1[nH]c2ccccc2c1/C=N\NC(=O)c1ccccc1Cl | inactive | 
47 | COc1ccc(Nc2c3c(nc4ccccc24)CCCC3)cc1OC | inconclusive [cytotoxic, single point] | 
48 | CCSc1nsc(NC(=O)Nc2cccc(C(C)=O)c2)n1 | inconclusive [cytotoxic, single point] | 

Row | SMILES | Potency | activity, negative = less viability
49 | CCCc1c(-c2cccc(Cl)c2)ncn1Cc1ccccc1OC | inconclusive [cytotoxic, single point] | 
50 | O=C(CN1C(=O)/C(=C/c2ccccc2F)SC1=S)NC1C=CS(=O)(=O)C1 (configuration not stated) | inactive | 
51 | COc1ccc(C(=O)NC(=S)N2CCCCC2)cc1 | active: 0.562 µM | 
52 | CN(C)C1CCCCC=CC(=O)NC1 (configuration not stated) | inactive | 
53 | Cc1cccc(NC(=O)c2ccc([N+](=O)[O-])o2)n1 | inconclusive [cytotoxic, single point] | 
54 | COc1ccc2[nH]c(C(=O)N/N=C/c3ccccc3OC)cc2c1 | inconclusive [cytotoxic, partial curve] | 
55 | CC(C)CC(N)c1csc(NC(=O)Nc2ccccc2-c2ccccc2)n1 (configuration not stated) |  | inconclusive: -82.7%
56 | Cc1cc(N/N=C/c2ccc(O)cc2O)nc(-c2ccccc2O)n1 | inconclusive [cytotoxic, partial curve, poor fit] | 
57 | O=C(Nc1ccc(Oc2ccccc2)cc1)c1ccc2nc([C@@H]3O[C@H](CO)[C@H](O)[C@H](O)[C@H]3O)[nH]c2c1 | inconclusive [rising, partial curve] | 
58 | O=C(N/N=C/c1ccccn1)c1cc(-c2ccc(Br)s2)[nH]n1 | inconclusive [cytotoxic, single point] | 
59 | COc1ccc2c(c1)C1C=CCC1C(c1cc3c(cc1Br)OCO3)N2 (configuration not stated) | active: 10 µM | 
60 | COc1ccc(NS(=O)(=O)c2cccc(N/C(=N\S(=O)(=O)c3ccccc3)c3ccc(F)cc3)c2)cc1 | inconclusive [cytotoxic, single point] | 
61 | CC(C)[C@@H](CO)NC(=O)c1ccc2c3n(nc2c1)-c1ccccc1CO3 | inconclusive [cytotoxic, partial curve] | 
62 | CC(C)C1Nc2c(O)cc(Cl)c([N+](=O)[O-])c2C2C=CCC21 (configuration not stated) | inconclusive [cytotoxic, single point] | 
63 | COC(=O)Nc1ccc2ncn(C)c(=O)c2c1 | inactive | 
64 | CS(=O)(=O)N1CCc2cc(-c3csc(NC(=O)Cc4cccs4)n3)ccc21 | active: 10 µM | 
65 | Nc1ncccc1OCc1ccc(Br)cc1 | inactive | 
66 | Cc1nc(N)nc(Nc2ccc(Cl)cc2)c1Br | inconclusive [cytotoxic, partial curve] | 
67 | COc1ccc2ccc3c(c2c1)N=CC1(O3)N(C)c2ccccc2C1(C)C (configuration not stated) | active: 7.94 µM | 
68 | CCN(CC(=O)NCc1cccs1)CC(=O)Nc1ccccc1C | inactive | 
69 | CC1CCc2c(nc3sc4c(c3c2N)CCCC4)C1 (configuration not stated) | inconclusive [cytotoxic, single point] | 
70 | Cc1ccc(NC(=O)CN(Cc2ccco2)Cc2ccccc2O)cc1C | inconclusive [cytotoxic, partial curve] | 
71 | C=CCn1c(COc2cc(C)ccc2C(C)C)nnc1SCC(=O)c1c(N)n(C)c(=O)n(C)c1=O | inactive | 
72 | COc1cc(C(=O)Nc2ccc(NC(C)=O)cc2)ccc1OCc1ccccc1 | inactive | 
